# ± gives the standard deviation of the averaged measurements. The full ranking holds about 33,000 sequences; the median of “E-score (dimensionless, -0.5 to 0.5)” is about -0.049, and the highest 2% start at about 0.37. The list shows a part of the results.
# Tested on: T1, PmTbr T-box DNA-binding domain (GST fusion)
# T1 sequence: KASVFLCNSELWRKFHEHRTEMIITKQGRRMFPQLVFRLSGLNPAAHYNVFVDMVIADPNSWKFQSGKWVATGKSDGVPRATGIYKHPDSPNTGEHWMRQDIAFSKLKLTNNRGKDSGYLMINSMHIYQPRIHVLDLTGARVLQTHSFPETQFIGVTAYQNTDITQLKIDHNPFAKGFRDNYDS
# Experiment: PBM E-score of 8-mer (E-score (dimensionless, -0.5 to 0.5)); Tbr is Tbrain of the sea star Patiria miniata (Pm) or the sea urchin Strongylocentrotus purpuratus (Sp); higher = stronger binding preference; most listed sequences are background and not binding sites
# Settings: the construct has about 5 more residues each side
# In short: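 Each ungapped 8-mer received an enrichment E-score from the Universal PBM Analysis Suite, averaged over duplicate arrays. The proteins were Tbr T-box DNA-binding domains, covering the whole T-box plus about five flanking residues, fused to GST and expressed in BL21 E. coli at 20 °C before glutathione affinity purification. Universal Agilent oligonucleotide arrays were made double-stranded by primer extension and incubated with 200 nM protein in PBS (pH 7.5). The arrays were then scanned and quantified, and every 8-mer was scored from probe intensities.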
row,Sequence,PBM E-score of 8-mer
1,ACAGTGGC,0.07305 ± 0.00037
2,GGGCTGGA,-0.355 ± 0.0071
3,CGTTCAAG,-0.177 ± 0.028
4,GCAGAGGA,-0.211 ± 0.024
5,TCCCATAA,-0.125 ± 0.013
6,AACACAGT,0.1819 ± 0.0004
7,CAGTAACG,0.091 ± 0.075
8,TACCTCGA,-0.0364 ± 0.012
9,GATACCGA,-0.102 ± 0.048
10,GAGAGTAC,0.0197 ± 0.044
11,GGATACCA,-0.0944 ± 0.016
12,AAGGTCGT,-0.204 ± 0.0052
13,AGGGAGTC,-0.0843 ± 0.062
14,AAAGCCTC,0.138 ± 0.0031
15,AGTGGAGC,-0.0254 ± 0.067
16,ATAAATCA,0.0299 ± 0.034
17,CGGAGCTA,-0.182 ± 0.069
18,AGGTGGCA,0.436 ± 0.0087
19,CCGGTGAA,-0.0943 ± 0.01
20,TATGCCAA,0.0587 ± 0.026
21,AACTTGAC,0.196 ± 0.018
22,CTACGGAA,-0.177 ± 0.0062
23,CCCTGCAC,-0.00434 ± 0.053
24,GCATTAGA,-0.381 ± 0.068
25,GCGCCGAC,-0.0176 ± 0.051

row,Sequence,PBM E-score of 8-mer
1,GCCTGTTA,0.0194 ± 0.033
2,GGCAACCA,0.0351 ± 0.0081
3,AGATGAAG,-0.107 ± 0.02
4,ACTCATGG,-0.044 ± 0.047
5,ATTTCTTC,0.0759 ± 0.0039
6,AGGGGCTG,-0.18 ± 0.047
7,CCATTGCA,-0.131 ± 0.092
8,CAATTGAC,0.222 ± 0.041
9,CTCGAACA,0.0472 ± 0.016
10,ACCGACCG,-0.131 ± 0.016
11,AGTTCTAC,-0.0436 ± 0.026
12,CCGTAGCC,-0.183 ± 0.079
13,ACTTACTG,-0.0442 ± 0.021
14,CCACCGCC,-0.0493 ± 0.11
15,ATTTGGCA,0.26 ± 0.045
16,GAGACTCA,-0.19 ± 0.039
17,CTGCTTAA,0.00768 ± 0.037
18,CTGCCCAG,-0.263 ± 0.069
19,CCAGTTAG,-0.128 ± 0.055
20,CTGAAGTA,-0.209 ± 0.028
21,ACAACGTG,0.203 ± 0.024
22,CAGCTAAG,0.112 ± 0.035
23,CGGCAACG,0.0825 ± 0.062
24,GGCTAGAC,-0.231 ± 0.029
25,CTATCCTA,-0.171 ± 0.017

row,Sequence,PBM E-score of 8-mer
1,CGGTAATC,-0.167 ± 0.016
2,GCAAATCC,-0.167 ± 0.1
3,AGCATCCA,-0.276 ± 0.016
4,ATGGTTAG,0.0164 ± 0.081
5,CTCCACAC,0.341 ± 0.0092
6,AACCGGAG,0.0722 ± 0.034
7,CTGCAAAG,0.0565 ± 0.011
8,GGGGAGCA,-0.293 ± 0.047
9,GCCGCCAC,0.154 ± 0.13
10,AACACCAT,0.3887 ± 0.0029
11,ACAAAAAT,0.0628 ± 0.14
12,AGAAGTGA,0.273 ± 0.023
13,ATCTTAGC,0.113 ± 0.059
14,CGGCGTAC,-0.162 ± 0.0097
15,AACGCAAA,-0.00514 ± 0.0059
16,ATAACGCG,0.232 ± 0.021
17,GCATTAAA,-0.207 ± 0.037
18,CCGAAGGC,-0.0446 ± 0.081
19,GATAGCGC,0.315 ± 0.015
20,AGATGGCC,-0.256 ± 0.0099
21,ACTACTCG,-0.0337 ± 0.043
22,GGATGAAA,-0.152 ± 0.013
23,CTTCTAGC,0.0419 ± 0.001
24,CATGGAAC,-0.19 ± 0.03
25,CTCAAGAA,-0.0351 ± 0.062

row,Sequence,PBM E-score of 8-mer
1,CCACTGCC,-0.17 ± 0.095
2,AAGCCGCC,0.0264 ± 0.1
3,AGAGTACC,-0.132 ± 0.064
4,ACTAAGGG,-0.0243 ± 0.0032
5,AGCAGTTA,0.0764 ± 0.014
6,CTTCTCTA,-0.24 ± 0.065
7,AATACCTC,0.00213 ± 0.03
8,AGAACCAT,-0.12 ± 0.0091
9,GATCTGCA,-0.0482 ± 0.082
10,TAATTTAA,-0.134 ± 0.12
11,CATAGTCC,-0.216 ± 0.019
12,TCTTCTAA,-0.107 ± 0.0046
13,ACGCAAGC,0.043 ± 0.011
14,ATGATCAC,0.231 ± 0.013
15,CACCGTGA,0.241 ± 0.016
16,ACGCCGCT,-0.0767 ± 0.029
17,ACCCGCAG,-0.0801 ± 0.051
18,AAACCTAC,-0.212 ± 0.034
19,AACATATT,0.0441 ± 0.1
20,GGTCATTA,-0.201 ± 0.076
21,ACGGAAGT,-0.00371 ± 0.0069
22,CGGATGTC,-0.00886 ± 0.0041
23,CCGTCACC,0.356 ± 0.03
24,ACATCAGG,-0.262 ± 0.04
25,AACGTTCT,-0.0645 ± 0.085

row,Sequence,PBM E-score of 8-mer
1,ATGCCATA,-0.125 ± 0.044
2,AGAGGGCT,-0.157 ± 0.088
3,ATTTAGGG,-0.173 ± 0.025
4,AGGATACT,-0.158 ± 0.032
5,ACGCATTA,0.0776 ± 0.018
6,AGAATAGA,-0.102 ± 0.08
7,ACCAGCAT,-0.176 ± 0.026
8,ATTGTTTG,-0.0825 ± 0.06
9,TCAGTTCA,-0.185 ± 0.058
10,AAGGTAAC,-0.00715 ± 0.095
11,ACTTGCAA,0.288 ± 0.026
12,TGGGCACA,-0.0874 ± 0.015
13,ATGGGCAA,-0.0885 ± 0.0056
14,GTGTGAAC,0.4888 ± 0.0019
15,AACCCTGT,-0.195 ± 0.055
16,GATTGCTA,0.0717 ± 0.0034
17,AGCCCTTG,-0.223 ± 0.13
18,TAGATCGA,-0.291 ± 0.12
19,GGGAGAAC,-0.0308 ± 0.04
20,CACTATCC,0.0472 ± 0.019
21,CCGATGGC,0.0496 ± 0.0056
22,AAAAAAGC,-0.0763 ± 0.083
23,GATCGGCA,0.036 ± 0.041
24,CGCGACCC,0.162 ± 0.045
25,CAATTCTG,0.115 ± 0.053

row,Sequence,PBM E-score of 8-mer
1,TGCTAAAA,0.355 ± 0.059
2,TCGACAGA,0.165 ± 0.015
3,AATGGTCA,0.0182 ± 0.0061
4,GCTGAATA,-0.0804 ± 0.021
5,ATAATTTA,0.0668 ± 0.061
6,ACGTCCAG,0.00044 ± 0.061
7,AGAAGACT,-0.295 ± 0.017
8,CATTTGCG,0.05 ± 0.021
9,AATACTCT,-0.111 ± 0.064
10,ATCCCTCA,-0.0534 ± 0.037
11,AGTGCGAA,0.4725 ± 0.00067
12,CTAGCCAA,-0.0952 ± 0.014
13,CGTACCCA,-0.136 ± 0.041
14,TACGTTAA,0.00481 ± 0.056
15,AGAATCTC,-0.101 ± 0.014
16,ATTACGGC,-0.0812 ± 0.046
17,GTTGGAAA,-0.035 ± 0.01
18,GCTCATTA,-0.106 ± 0.092
19,GGTATACA,0.104 ± 0.0033
20,CCGGCCCG,-0.221 ± 0.015
21,ATAGGAAC,-0.205 ± 0.074
22,ATACCTTG,-0.117 ± 0.061
23,AAACAGAG,0.00481 ± 0.078
24,AGGCATAT,-0.327 ± 0.0097
25,ACTGCAGG,-0.0649 ± 0.097

row,Sequence,PBM E-score of 8-mer
1,GGGTTCCA,-0.174 ± 0.028
2,GTGCTATA,0.216 ± 0.022
3,CTTCAAGC,-0.125 ± 0.0076
4,GAGCCCTC,-0.149 ± 0.072
5,CAGAGTTA,0.0303 ± 0.0041
6,ACGATTGA,-0.00167 ± 0.056
7,CCACCCGA,0.159 ± 0.0077
8,CGACCGTA,-0.229 ± 0.14
9,CCCATGGA,-0.224 ± 0.048
10,CATTGAAA,-0.118 ± 0.03
11,AGCTGTAC,-0.0876 ± 0.022
12,ATTCATGG,0.0231 ± 0.023
13,GCCGCTAA,0.171 ± 0.011
14,CGCCAAGA,-0.0181 ± 0.0017
15,ATACATGA,-0.0916 ± 0.04
16,ACCTGCAA,0.227 ± 0.043
17,CAATTCTA,-0.0043 ± 0.092
18,AAGTTCTA,-0.174 ± 0.031
19,CGACCTTA,-0.208 ± 0.062
20,AATAGGTA,-0.0644 ± 0.018
21,TTATTGAA,-0.164 ± 0.1
22,CGGTGGCA,0.147 ± 0.031
